# Laboratory results published in PMC4336329 (PLoS ONE, 2015).
# The campaign covered roughly 310,000 compounds. About 2,200 (0.71%) showed an effect of 50% or more. The effect is printed as a negative number. The list shows a part of the results.
# Molecular target: human ether-à-go-go-related gene (hERG) potassium channel (human, UniProt Q12809)
# Assay: primary screen, population patch clamp on CHO cells stably expressing hERG
# human ether-à-go-go-related gene (hERG) potassium channel, sequence (Q12809 whole entry, looked up): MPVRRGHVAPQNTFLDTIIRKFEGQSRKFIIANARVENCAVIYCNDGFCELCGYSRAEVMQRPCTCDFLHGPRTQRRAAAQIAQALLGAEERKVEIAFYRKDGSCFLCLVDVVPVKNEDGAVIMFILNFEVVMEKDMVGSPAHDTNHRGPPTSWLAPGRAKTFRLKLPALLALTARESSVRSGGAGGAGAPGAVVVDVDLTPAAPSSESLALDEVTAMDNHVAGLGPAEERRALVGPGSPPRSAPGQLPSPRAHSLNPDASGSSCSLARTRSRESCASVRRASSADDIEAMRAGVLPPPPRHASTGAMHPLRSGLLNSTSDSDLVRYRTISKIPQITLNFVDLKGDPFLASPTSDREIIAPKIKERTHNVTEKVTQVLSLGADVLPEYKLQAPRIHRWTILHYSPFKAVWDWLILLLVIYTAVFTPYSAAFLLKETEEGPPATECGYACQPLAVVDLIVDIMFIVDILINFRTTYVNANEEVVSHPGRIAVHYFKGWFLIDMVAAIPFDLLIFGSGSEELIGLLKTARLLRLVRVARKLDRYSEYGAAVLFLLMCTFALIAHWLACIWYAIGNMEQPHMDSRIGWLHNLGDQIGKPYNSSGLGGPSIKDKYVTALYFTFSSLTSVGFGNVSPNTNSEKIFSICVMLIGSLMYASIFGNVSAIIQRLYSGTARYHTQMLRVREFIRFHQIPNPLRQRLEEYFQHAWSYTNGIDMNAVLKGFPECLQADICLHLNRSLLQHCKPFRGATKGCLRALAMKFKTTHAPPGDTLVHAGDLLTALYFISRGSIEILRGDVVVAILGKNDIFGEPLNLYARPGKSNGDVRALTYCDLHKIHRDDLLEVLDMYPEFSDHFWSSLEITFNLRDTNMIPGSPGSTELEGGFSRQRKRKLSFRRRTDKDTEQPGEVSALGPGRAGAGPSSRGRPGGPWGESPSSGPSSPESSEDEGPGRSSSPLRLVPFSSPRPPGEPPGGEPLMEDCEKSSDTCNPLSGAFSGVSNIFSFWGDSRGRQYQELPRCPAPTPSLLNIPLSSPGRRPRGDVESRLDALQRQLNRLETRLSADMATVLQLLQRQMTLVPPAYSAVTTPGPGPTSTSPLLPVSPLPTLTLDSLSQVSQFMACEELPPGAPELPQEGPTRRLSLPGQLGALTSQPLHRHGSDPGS
row,SMILES,"hERG current change (%, negative = inhibition) at 1uM [%]"
1,COc1ccc(-c2noc(CCC(=O)NCCN(C)Cc3ccccc3)n2)cc1,-5.25
2,COc1ccc(CN2CCC(C(=O)NCCc3ccc(OC)c(OC)c3)CC2)c(OC)c1,6.06
3,Cc1cc(NC(=O)CCC(=O)N(CC(=O)NCC2CCCO2)c2ccccc2C)no1 (centres unmarked),14.3
4,COc1ccc(CCN2CCCn3c2nc2c3c(=O)n(Cc3ccccc3F)c(=O)n2C)cc1OC,-2.77
5,CC1=C(C#N)C(=O)N(C2CCS(=O)(=O)C2)C(=O)/C1=C\c1ccco1 (centres unmarked),11.6
6,COc1ccc(CCNC(=O)COC(=O)c2ccc(F)c(S(=O)(=O)N3CCOCC3)c2)cc1,-9.09
7,CNC(=O)C1=NCCCc2cc(OC)c(OC)cc21,-7.35
8,COc1ccccc1CNC(=O)C1CC(c2cccc([N+](=O)[O-])c2)=NO1 (centres unmarked),-6.28
9,C=CCn1c(SCC(=O)c2ccc(Br)cc2)nnc1C(C)NC(=O)Cc1ccc(OC)cc1 (centres unmarked),-4.53
10,O=C(CSc1nc2ccccc2[nH]1)Nc1nc(-c2cccc(Br)c2)cs1,16.2
11,COc1ccc(NC(=O)CS(=O)(=O)c2cn(CC(=O)N3CCCC3)c3ccccc23)c(OC)c1,6.44
12,CCn1cc(CNC(=O)CCc2nnc(CCC3CCCCC3)o2)cn1,11.2
13,Cc1ccc(NC(=S)N2CCCC(c3nc4ccc(C)cc4[nH]3)C2)c(C)c1 (centres unmarked),3.52
14,Cl.Oc1ccccc1C1NCc2ccccc2-n2cccc21 (centres unmarked),14.8
15,COc1ccc(CN2C(=O)NC(=O)/C(=C/c3cc(OC)c(OC)c(OC)c3)C2=O)cc1,11.5
16,CCOC(=O)/C(C#N)=C1/C=CN(C)C(C)=N1,11.9
17,CCCOc1ccc(N)cc1N.Cl,8.72
18,C/C(=N\NC(=O)C(O)(c1ccccc1)c1ccccc1)c1ccc(C)o1,13.2
19,COc1ccc2c(OC)cc(-c3ccccc3)nc2c1,4.57
20,COc1nc(Nc2cccc(C(F)(F)F)c2)nc(OC)n1,8.79
21,CC(=O)Nc1ccc(/C=N/N2C(C)CCCC2C)cc1 (centres unmarked),14.2
22,COc1ccc([N+](=O)[O-])cc1N(CC(=O)N1CCCC1)S(C)(=O)=O,10.2
23,Cc1nc2ccc([N+](=O)[O-])cc2c(=O)n1Cc1ccc(F)cc1,-9.51

row,SMILES,"hERG current change (%, negative = inhibition) at 1uM [%]"
1,CSc1ccc(C(=O)C2CCCN(C(=O)c3cc4cc(F)ccc4[nH]3)C2)cc1 (centres unmarked),13
2,O=C(O)CCC(=O)N1CCc2cc(S(=O)(=O)N3CC=C(c4ccccc4)CC3)ccc21,13.4
3,CCc1ccc(NC(=O)CN2C(=O)CSC2=O)cc1,8.41
4,COc1ccc(N2C(=O)CC(SCc3ccc(Cl)cc3)C2=O)cc1 (centres unmarked),8.87
5,CCOC(=O)C1CCCN(C2CC(=O)N(c3ccc(C)cc3)C2=O)C1 (centres unmarked),10.7
6,Cc1c(C)n(C(=O)CN2CCN(c3ccccc3)CC2)c2ccccc12,1.3
7,COc1ccc(C(C)C)cc1S(=O)(=O)NCc1ccccn1,11.4
8,CCOC(=O)c1sc(Nc2ccc(C)cc2C)nc1C,14.3
9,Cc1ccc(NC(=O)c2ccco2)cc1NC(=O)CSc1nnc(-c2cccs2)n1C,-21.9
10,Nn1c(SCc2cccc(Cl)c2)nnc1-c1ccncc1,6.74
11,Cc1cccc(NC(=O)COC(=O)Cc2c[nH]c3ccccc23)c1C,16.7
12,COc1ccc(NC(=O)C(c2cc3c(cc2[N+](=O)[O-])OCO3)N(C)Cc2ccccc2)cc1 (centres unmarked),10.8
13,COc1cc2[nH]c(=S)n(CCN3CCCCC3C)c(=O)c2cc1OC (centres unmarked),1.74
14,Cn1c(O)c(C(c2ccncc2)c2c(O)n(C)c(=S)n(C)c2=O)c(=O)n(C)c1=S,11.3
15,Cc1[nH]c(=O)cc2ccccc12,11.3
16,O=C(COC(=O)c1ccco1)Nc1cccc(Br)c1,11.4
17,Cc1ccc(-c2csc(NC(=O)CSc3nc(C)cs3)n2)cc1,-0.666
18,Cc1nc(C)n(CC(=O)N2CCCC(C(=O)c3ccc(Cl)cc3C)C2)n1 (centres unmarked),-2.69
19,Cc1nnc(SCC(=O)N(Cc2ccccc2)C(C)C)n1-c1ccccc1,12.3
20,CC(C(=O)Nc1cccnc1)N1C(=O)c2ccccc2C1=O (centres unmarked),11.7
21,CCOC(=O)N1CCN(C(=O)CSc2ccc(-c3ccccc3OC)nn2)CC1,2.58
22,COc1cc(C(=S)N2CCOCC2)cc(Br)c1OS(=O)(=O)c1ccccc1,19.5
23,COc1ccccc1CN1CCN(Cc2nc(-c3ccc(C)cc3)oc2C)CC1,1.01

row,SMILES,"hERG current change (%, negative = inhibition) at 1uM [%]"
1,CCCn1c(SCC(=O)NC2CCCc3ccccc32)n[nH]c1=O (centres unmarked),18.2
2,Fc1ccc(CN2CCN(c3ncnc4scc(-c5ccc(F)cc5)c34)CC2)cc1,13.8
3,Cn1ccnc1Sc1ccccc1[N+](=O)[O-],12.1
4,CC(C)C(=O)NC(=S)Nc1ccccc1N1CCN(C(=O)c2ccccc2)CC1,6.8
5,CC(C)c1nnc(NC(=O)CCCCCN2C(=O)C3C4C=CC(C4)C3C2=O)s1 (centres unmarked),-3.36
6,CC(=O)Nc1ccc(S(=O)(=O)N(C)CC(=O)OCC(=O)N2CCCC2=O)cc1,6.45
7,O=C(CN1C(=O)COc2ccc(S(=O)(=O)N3CCCCC3)cc21)NCc1ccc(Cl)cc1,16.4
8,Cc1ccc(NC(=O)Nc2ccc3c(c2)nc(C)n3C)cc1,7.11
9,O=C(NCc1ccccc1C(F)(F)F)C1CC(c2ccc(C(F)(F)F)cc2)=NO1 (centres unmarked),8.37
10,Cc1nc2c(c3c1[nH]c1ccccc13)C(=O)CC(C)(C)C2,17.6
11,COc1ccc(CCNC(=O)CSc2ccccn2)cc1,5.88
12,CCOC(=O)c1sc(NC(=O)c2ccncc2)nc1C,4.1
13,COc1ccc(NC(=O)C(CC(C)C)NC(=O)C2CCC(C)CC2)cc1 (centres unmarked),8.82
14,COc1ccc(S(=O)(=O)Nc2ccccc2C(=O)N2CCOCC2)cc1Br,7.83
15,CCOc1ccc(C2CC(c3cccc(C)c3)n3ncnc3N2)cc1 (centres unmarked),-13.6
16,CC(C)N(C(=O)CSc1nc(Cc2ccccc2)nc2ccccc12)C(C)C,10.5
17,CCOC(=O)C1(Cc2ccccc2C)CCCN(C(=O)CN2CCCCC2=O)C1 (centres unmarked),16.8
18,CCCCN(C(=O)c1cc(-c2ccco2)nc2ccccc12)c1c(N)n(CCCC)c(=O)[nH]c1=O,7.94
19,Cc1ccc(C)c(NC(=O)NCCN2CCCCC2)c1,4.5
20,CCOC(=O)C(NC(C)=O)(Nc1cccc(F)c1)C(F)(F)F (centres unmarked),9.09
21,Cc1ccc(-c2csc(NC(=O)c3ccccc3Cl)c2C(=O)O)cc1,19.3
22,CC(=O)NC1=NN(C(C)=O)C(C)(CS(=O)(=O)c2ccc(C)c(C)c2)S1 (centres unmarked),14.9
23,O=c1c2c(-c3ccccc3)csc2nc2n1CCC2,15.5

row,SMILES,"hERG current change (%, negative = inhibition) at 1uM [%]"
1,COc1ccc(Oc2nc(-c3ccccc3)ncc2C(=O)O)cc1,12.7
2,CCCN(CCC)S(=O)(=O)c1ccc(C(=O)N2CC3CCC(CC3)C2)cc1,14.2
3,O=C(Nc1ccccc1NC(=O)c1c(F)c(F)c(F)c(F)c1F)c1c(F)c(F)c(F)c(F)c1F,5.94
4,FC(F)(F)c1ccccc1NC1=NCCC1,5.25
5,CCOC(=O)c1c(S(=O)(=O)N2CCCC(C(=O)Nc3ncccc3C)C2)c(C)n(C)c1C (centres unmarked),15.4
6,CC1=NN(C(=O)c2csc(C)c2C)C(O)(C(F)(F)F)C1 (centres unmarked),8.3
7,Cc1ccc(N2CC(C(=O)OCc3ccccc3)CC2=O)cc1 (centres unmarked),-3.34
8,NC(=S)N/N=C1\CCOc2ccc(Cl)cc21,0.314
9,CC(OC(=O)C1CCCC1)C(=O)Nc1ccc(C(N)=O)cc1 (centres unmarked),12.1
10,COc1ccc(S(=O)(=O)N2CCCCCC2)cc1NC(=O)CC1OC(=O)c2ccccc21 (centres unmarked),-9.23
11,O=C1/C(=C/c2ccco2)CCC1C1CCCC1 (centres unmarked),8.51
12,CC1CCCN(CC(=O)Nc2cc(Cl)ccc2Oc2ccccc2)C1 (centres unmarked),17.9
13,Cc1ccc(C(=O)N/N=C/c2sc(=O)n(Cc3cccc(C(=O)O)c3)c2Cl)cc1,11.6
14,O=C(c1ccco1)N1CCN(C(=O)C2CC2)CC1,2.89
15,NC(=O)c1cc2c(s1)-c1cc(Cl)ccc1SC2,10.7
16,CC(C)Cc1ccc(C(=O)NCc2ccc3c(c2)OCO3)o1,13.8
17,CSc1nc(C)nc(C2CC2)c1C#N,15.9
18,COc1ccc(N2CC(C)Cn3c2nc2c3c(=O)n(Cc3ccc(F)cc3)c(=O)n2C)c(OC)c1 (centres unmarked),-3.37
19,COc1cccc(-c2cc(C(=O)Nc3cccnc3)c3ccccc3n2)c1,3.04
20,CCNC(=O)CSc1nnc(-c2cc(-c3ccc(Cl)cc3)nc3ccccc23)o1,-4.55
